{
  "source": "PubChem BioAssay AID1508623",
  "about": "(National Center for Advancing Translational Sciences (NCATS), 2021)",
  "note": "Among all 48,000 compounds or so, about 450 (0.94%) were called active. Inconclusive means that the source gave no clear call. Such entries were picked first, then a sample of the others. The call rests on the fitted dose curve; in most records, active means well fitted inhibition curve with a large enough effect; inconclusive means small, poorly fitted or top-dose-only effect; inactive means no such curve, though single readings can be large or run the other way. A potency beside an inconclusive call is a rough fit, not a confirmed value. Potency means the concentration at half of the fitted maximal effect; tags describe the fitted curve by direction and shape.",
  "data": [
    {"experiment": "Primary qHTS for Identification of Small Molecule Inhibitors of Huntingtin Promoter Activity; further: nearly all actives have a fitted effect of over 50% in size", "conditions": "HEK293 HTT promoter firefly luciferase reporter (activity 0% = vehicle and -100% = no light), 24 h; series mostly up to 57.5 µM", "procedure,_shortened": "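Quantitative HTS used concentration series of up to 57.5 uM final on HEK293 luciferase reporter cells, 24 h at 37 degrees C. Readout was Dual-Glo firefly luminescence.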", "values": [
      {"smiles": "Cc1ccc(-c2nnc(Nc3cccc(O)c3)c3ccccc23)cc1S(=O)(=O)N1CCN(C)CC1", "Potency": "inconclusive: 0.178 µM [inhibitor, partial curve, poor fit]"},
      {"smiles": "Cc1ccccc1OCC(O)Cn1c(=N)n(CCN2CCCCC2)c2ccccc21", "note": "(stereo not drawn)", "Potency": "inconclusive: 35.5 µM [inhibitor, single point]"},
      {"smiles": "COc1cc(NS(=O)(=O)c2ccc3[nH]c4c(c3c2)CCCCCC4)cc(OC)c1", "Potency": "inconclusive: 28.2 µM [inhibitor, partial curve]"},
      {"smiles": "Cc1ccc(-c2nnc(Nc3ccc(O)cc3)c3ccccc23)cc1S(=O)(=O)N1CCOCC1", "Potency": "inconclusive: 31.6 µM [inhibitor, single point]"},
      {"smiles": "CCOC(=O)c1cc(-c2ccccc2)n(-c2cccc(C(=O)Nc3ccc(OCC)cc3)c2)c1C", "Potency": "inconclusive: 15.8 µM [inhibitor, partial curve, poor fit]"},
      {"smiles": "COc1cccc(NS(=O)(=O)c2ccc(-c3cc(C)no3)s2)c1", "Potency": "inconclusive: 28.2 µM [inhibitor, partial curve, poor fit]"},
      {"smiles": "CC(C)(C)C(=O)NCCc1nc2ccccc2n1CCCCOc1ccc(Cl)cc1", "Potency": "inconclusive: 31.6 µM [inhibitor, single point]"},
      {"smiles": "COc1ccc(-c2nc(CNS(=O)(=O)c3ccccc3)cs2)cc1", "Potency": "inconclusive: 28.2 µM [inhibitor, single point]"},
      {"smiles": "COc1cccc(CNC(=O)c2cc3c(s2)-c2c(C)cccc2OC3)c1", "Potency": "inconclusive: 31.6 µM [inhibitor, single point]"},
      {"smiles": "Cc1ccc(NS(=O)(=O)c2ccc3nc(-c4ccccc4)[nH]c3c2)c(Cl)c1", "Potency": "inconclusive: 35.5 µM [inhibitor, single point]"},
      {"smiles": "COC(=O)c1c(Oc2ccc(C(C)=O)cc2)nnc(-c2ccccc2)c1-c1ccccc1", "Potency": "inconclusive: 15.8 µM [inhibitor, partial curve, poor fit]"},
      {"smiles": "Cc1ccc(S(=O)(=O)Nc2cccc(-c3cn4cccc(C)c4n3)c2)cc1", "Potency": "inconclusive: 22.4 µM [inhibitor, partial curve]"},
      {"smiles": "CCc1ccc(C2CC(=O)Nc3cc4c(cc32)OCO4)cc1", "note": "(stereo not drawn)", "Potency": "inconclusive: 39.8 µM [inhibitor, partial curve, poor fit]"},
      {"smiles": "Cc1cccc(N2CCN(C(=O)c3c(C)oc4ncnc(N5CCCCC5)c34)CC2)c1C", "Potency": "inconclusive: 39.8 µM [inhibitor, single point]"},
      {"smiles": "Cc1ccc(C)c(Nc2nc3c(S(=O)(=O)c4ccc(C(C)C)cc4)nnn3c3ccsc23)c1", "Potency": "inconclusive: 28.2 µM [inhibitor, partial curve, poor fit]"},
      {"smiles": "Cc1ccccc1CCNC(=O)c1ccc2c(c1)c(C)c(C)n2Cc1ccccc1", "Potency": "inconclusive: 28.2 µM [inhibitor, partial curve, poor fit]"},
      {"smiles": "CN1CCN(C2=Nc3ccccc3Oc3ccc(Cl)cc32)CC1", "Potency": "inactive"},
      {"smiles": "CCc1ccccc1N1C(=O)N(Cc2ccccc2C)c2ccccc2S1(=O)=O", "Potency": "inconclusive: 31.6 µM [inhibitor, partial curve, poor fit]"},
      {"smiles": "COc1ccc(OC)c(-n2cnc3cc(C(=O)NC4CCCCCC4)ccc32)c1", "Potency": "inactive"},
      {"smiles": "COc1ccc(-c2cc(C)nc3c(-c4ccc(OC)c(OC)c4)c(C)nn23)cc1", "Potency": "inconclusive: 20 µM [inhibitor, partial curve, poor fit]"},
      {"smiles": "CCCCCn1c(=O)[nH]c2cc(C(=O)N3CCN(c4cccc(C)c4)C(C)C3)ccc2c1=O", "note": "(stereo not drawn)", "Potency": "inconclusive: 12.6 µM [inhibitor, partial curve, poor fit]"},
      {"smiles": "Fc1cc(Br)ccc1Nc1c2c(nc3nc(-c4cccs4)nn13)CCCC2", "Potency": "inconclusive: 20 µM [inhibitor, partial curve, poor fit]"},
      {"smiles": "CNC(=O)c1cc(Nc2nnc(-c3ccc(O)cc3)c3ccccc23)ccc1OC", "Potency": "inactive"},
      {"smiles": "O=C1CCCc2cc(S(=O)(=O)NCC3CCC(C(=O)Nc4ccccc4F)CC3)ccc2N1", "note": "(stereo not drawn)", "Potency": "inconclusive: 39.8 µM [inhibitor, partial curve, poor fit]"},
      {"smiles": "COc1ccc(OC)c(CCNc2ncnc3onc(-c4ccc(F)cc4)c23)c1", "Potency": "inactive"},
      {"smiles": "CC(=O)c1ccc(NC(=O)C2=CC(c3ccc4c(c3)OCO4)=NS(=O)(=O)N2C)cc1", "Potency": "inconclusive: 31.6 µM [inhibitor, partial curve, poor fit]"},
      {"smiles": "Cc1ccc(C(=O)Nc2ccc3oc(-c4ccc(C(C)(C)C)cc4)nc3c2)cc1", "Potency": "inconclusive: 7.94 µM [inhibitor, single point]"},
      {"smiles": "CSc1nn(Cc2ccc(Cl)cc2)c(N(C(C)=O)C(C)=O)c1S(=O)(=O)c1ccccc1", "Potency": "inconclusive: 39.8 µM [inhibitor, single point]"},
      {"smiles": "C#CCOc1ccc(-c2nnc(Nc3cccc(C)c3)c3ccccc23)cc1", "Potency": "inconclusive: 31.6 µM [inhibitor, partial curve, poor fit]"},
      {"smiles": "Cc1cccc(Cn2cc(C(=O)Nc3ccc(F)c(C(F)(F)F)c3)ccc2=O)c1", "Potency": "inconclusive: 25.1 µM [inhibitor, single point]"},
      {"smiles": "Cc1ccc(S(=O)(=O)Cc2nc(-c3ccc(C(=O)NCc4ccccc4)cc3)oc2C)cc1", "Potency": "inconclusive: 25.1 µM [inhibitor, partial curve]"},
      {"smiles": "O=C(c1ccc2c(c1)CCN2S(=O)(=O)c1ccccc1)N1CCN(c2ccc(F)cc2)CC1", "Potency": "inconclusive: 31.6 µM [inhibitor, partial curve, poor fit]"},
      {"smiles": "O=C(NCCc1csc(-c2ccc(Cl)cc2)n1)c1cccs1", "Potency": "inconclusive: 39.8 µM [inhibitor, partial curve, poor fit]"},
      {"smiles": "O=S(=O)(Nc1ccc2oc3c(c2c1)CCCC3)c1cc(Cl)ccc1Cl", "Potency": "inactive"},
      {"smiles": "COc1ccc(-c2nnc(C3CCN(C(=O)c4ccccc4F)CC3)o2)cc1", "Potency": "inconclusive: 14.1 µM [inhibitor, partial curve]"},
      {"smiles": "COc1ccc(C2Sc3ccccc3NC3=C2C(=O)c2ccccc23)c(OC)c1OC", "note": "(stereo not drawn)", "Potency": "inconclusive: 17.8 µM [inhibitor, partial curve, poor fit]"},
      {"smiles": "COc1ccc(-c2onc(C)c2C)cc1S(=O)(=O)N1c2ccccc2CC1C", "note": "(stereo not drawn)", "Potency": "inactive"},
      {"smiles": "CCc1ccc(CNCc2c(C(=O)O)n(Cc3cccc(F)c3)c3cc(OC)ccc23)cc1", "Potency": "inconclusive: 28.2 µM [inhibitor, single point]"},
      {"smiles": "CCOC(=O)c1cccc(Nc2c3c(nc4ccccc24)CCC3)c1", "Potency": "inconclusive: 39.8 µM [inhibitor, single point]"},
      {"smiles": "CCOC(=O)c1oc2c(c1C)-c1nn(Cc3ccc(Cl)cc3)cc1CC2", "Potency": "inconclusive: 39.8 µM [inhibitor, single point]"},
      {"smiles": "Cc1noc(C)c1S(=O)(=O)N1CCC(C(=O)N2CCN(c3ccccc3)CC2)CC1", "Potency": "inactive"},
      {"smiles": "COc1ccccc1NC(=O)Cn1nnc(C(=O)NCc2ccc3c(c2)OCO3)c1N", "Potency": "inactive"},
      {"smiles": "COc1cc2[nH]c(=O)n(CCCCCC(=O)N3CCN(c4cccc(C(F)(F)F)c4)CC3)c(=O)c2cc1OC", "Potency": "inconclusive: 6.31 µM [inhibitor, partial curve, poor fit]"},
      {"smiles": "CCn1c(=O)n(CC)c2cc(N3CCCCC3)c(NC(=O)Nc3ccccc3Cl)cc21", "Potency": "inconclusive: 22.4 µM [inhibitor, single point]"},
      {"smiles": "COc1ccc(NC(=O)Cn2c(=O)oc3cc(S(=O)(=O)N4CCC(C)CC4)ccc32)c(OC)c1", "Potency": "inconclusive: 25.1 µM [inhibitor, partial curve, poor fit]"},
      {"smiles": "CCCS(=O)(=O)c1c(Nc2ccccc2C)sc(C(=O)c2ccccc2)c1N", "Potency": "inconclusive: 17.8 µM [inhibitor, partial curve]"},
      {"smiles": "CCCCCCCCCCCCCCCC(=O)O[C@H]1[C@@H](O)[C@@H](O)[C@@H]([C@H](NC(=O)[C@@H]2C[C@@H](CCC)CN2C)[C@H](C)Cl)O[C@@H]1SC", "Potency": "inactive"},
      {"smiles": "CCOc1ccccc1CNC(=O)CCn1ccc2cc(S(=O)(=O)N3CCC(C)CC3)ccc21", "Potency": "inconclusive: 17.8 µM [inhibitor, partial curve, poor fit]"},
      {"smiles": "CCOc1ccc(-c2cccc(NS(=O)(=O)c3c(C)cc(C)cc3C)c2)nn1", "Potency": "inconclusive: 15.8 µM [inhibitor, partial curve, poor fit]"},
      {"smiles": "CC(C)c1nn(-c2c(Cl)cccc2Cl)c2nc(Cc3ccc(OCCO)cc3)[nH]c(=O)c12", "Potency": "inconclusive: 0.306 µM [inhibitor, full curve]"},
      {"smiles": "Cc1c(Cl)cccc1NC(=O)Cn1c(CCC(=O)O)ccc1-c1cccs1", "Potency": "inconclusive: 28.2 µM [inhibitor, partial curve, poor fit]"},
      {"smiles": "COc1ccc(OC)c(-c2nnc3n(Cc4ccc(C)cc4)c(=O)c4ccccc4n23)c1", "Potency": "inconclusive: 31.6 µM [inhibitor, single point]"},
      {"smiles": "Cc1c(-c2ccc(Br)cc2)c(=O)oc2ccc(OC(=O)N3CCOCC3)cc12", "Potency": "inconclusive: 39.8 µM [inhibitor, single point]"},
      {"smiles": "Cc1c(Cl)cccc1-c1ccc(C(=O)Nc2ccc(F)cc2)o1", "Potency": "inactive"},
      {"smiles": "CCOC(=O)c1noc2ncn(CC(=O)Nc3ccc(C)c(F)c3)c(=O)c12", "Potency": "inactive"},
      {"smiles": "CCc1cccc(NC(=O)C2CCN(C(=O)c3cnn(-c4ccccc4)c3-n3cccc3)CC2)c1", "Potency": "inconclusive: 28.2 µM [inhibitor, partial curve, poor fit]"},
      {"smiles": "Cn1c(=O)c2c(nc(NCc3ccccc3)n2Cc2ccccc2)n(C)c1=O", "Potency": "inconclusive: 20 µM [inhibitor, partial curve]"},
      {"smiles": "CN(c1ncnc2onc(-c3cccc(Cl)c3)c12)C1CCCCC1", "Potency": "inconclusive: 31.6 µM [inhibitor, single point]"}
    ]}
  ]
}
